About 14,000 (4.5%) of roughly 310,000 compounds showed an effect of 50% or more. The effect is printed as a negative number. Some of the results follow.
These compounds were tested against human ether-à-go-go-related gene (hERG) potassium channel (human, UniProt Q12809) (assay: primary screen, population patch clamp on CHO cells stably expressing hERG).
Chain of human ether-à-go-go-related gene (hERG) potassium channel (Q12809 whole entry, looked up): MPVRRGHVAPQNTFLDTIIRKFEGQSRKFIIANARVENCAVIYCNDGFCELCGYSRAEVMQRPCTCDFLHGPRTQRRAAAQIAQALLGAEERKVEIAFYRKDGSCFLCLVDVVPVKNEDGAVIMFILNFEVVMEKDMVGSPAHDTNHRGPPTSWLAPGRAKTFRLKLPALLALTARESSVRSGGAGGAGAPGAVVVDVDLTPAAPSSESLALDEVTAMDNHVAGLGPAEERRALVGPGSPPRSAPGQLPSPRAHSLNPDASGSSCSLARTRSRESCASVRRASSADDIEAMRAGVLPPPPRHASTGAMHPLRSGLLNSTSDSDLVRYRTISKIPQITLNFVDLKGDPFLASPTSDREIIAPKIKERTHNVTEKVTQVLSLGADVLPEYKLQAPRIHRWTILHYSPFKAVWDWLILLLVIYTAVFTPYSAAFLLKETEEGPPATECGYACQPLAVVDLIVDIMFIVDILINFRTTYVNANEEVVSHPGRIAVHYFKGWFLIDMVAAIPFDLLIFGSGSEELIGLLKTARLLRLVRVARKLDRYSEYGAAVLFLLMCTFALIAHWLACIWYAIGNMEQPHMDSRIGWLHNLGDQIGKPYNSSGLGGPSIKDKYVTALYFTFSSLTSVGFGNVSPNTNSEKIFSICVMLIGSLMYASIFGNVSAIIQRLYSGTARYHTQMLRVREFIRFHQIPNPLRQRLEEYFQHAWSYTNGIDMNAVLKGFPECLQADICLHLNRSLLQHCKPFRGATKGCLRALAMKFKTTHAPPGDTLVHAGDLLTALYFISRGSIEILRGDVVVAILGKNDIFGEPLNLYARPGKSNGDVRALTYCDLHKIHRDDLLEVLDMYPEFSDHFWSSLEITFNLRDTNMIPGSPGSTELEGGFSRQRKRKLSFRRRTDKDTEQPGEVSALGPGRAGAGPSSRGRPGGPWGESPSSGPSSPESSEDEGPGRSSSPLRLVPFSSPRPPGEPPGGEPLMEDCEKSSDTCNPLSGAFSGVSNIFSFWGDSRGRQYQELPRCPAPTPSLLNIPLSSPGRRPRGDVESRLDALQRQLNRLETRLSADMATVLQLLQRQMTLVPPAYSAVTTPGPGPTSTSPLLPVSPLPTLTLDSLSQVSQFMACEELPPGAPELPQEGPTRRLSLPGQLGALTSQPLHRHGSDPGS
In the case of `COc1cc2c(cc1OC)C1CC(=O)C(CC(C)C)CN1CC2` (centres unmarked), the “hERG current change (%, negative = inhibition) at 10uM” value is reported as 3.96%. In the case of `CC(C)C[C@H](NC(=O)c1nc[nH]c1C(=O)NC1CCN(C(=O)OC(C)(C)C)CC1)C(=O)OC(C)(C)C`, the “hERG current change (%, negative = inhibition) at 10uM” value is reported as -10.8%. In the case of `Cc1ccc(S(=O)(=O)c2nc(-c3ccccc3Br)oc2N(C)C)cc1`, the “hERG current change (%, negative = inhibition) at 10uM” value is reported as -14.3%. For `COc1ccc(Nc2nc3ccccc3nc2NS(=O)(=O)c2cccs2)cc1`, the “hERG current change (%, negative = inhibition) at 10uM” value was 10.8%. `O=C(CCCn1c(=S)[nH]c2cc3c(cc2c1=O)OCO3)N1CCN(c2ncccn2)CC1` was tested, and the “hERG current change (%, negative = inhibition) at 10uM” value was -5.36%. `O=C(O)Cn1nnnc1SCC(=O)Nc1ccc(F)cc1F` was tested, and the “hERG current change (%, negative = inhibition) at 10uM” value was 4.49%. For `Nn1c(-c2ccco2)n[nH]c1=S`, the “hERG current change (%, negative = inhibition) at 10uM” value was 20.6%. With `N#Cc1c(NC(=O)CSc2ncn[nH]2)sc2c1CCCCC2` the “hERG current change (%, negative = inhibition) at 10uM” value was 0.538%. In the case of `CNS(=O)(=O)c1cc(-c2nnc(Nc3ccc(CC(N)=O)cc3)c3ccccc23)ccc1C`, the “hERG current change (%, negative = inhibition) at 10uM” value is reported as 7.68%. For `Cc1c(C)n(CCCN(C)C)c2ncnc(Nc3ccc(F)cc3)c12`, the “hERG current change (%, negative = inhibition) at 10uM” value was -50.8%. With `CC1=CC(C)(C)N2C(=O)C3(C(C#N)=C(N)OC4=C3C(=O)CC(C)(C)C4)c3c(C)c(C)cc1c32` (centres unmarked) the “hERG current change (%, negative = inhibition) at 10uM” value was -9.96%. In the case of `COCCCNC(=O)Cc1ccc(-n2c(C)nc3cccnc32)cc1`, the “hERG current change (%, negative = inhibition) at 10uM” value is reported as 14.8%. For `CC(C)N(CCCNC(=O)C1CCN(S(=O)(=O)N2CCOCC2)CC1)Cc1ccccc1`, the “hERG current change (%, negative = inhibition) at 10uM” value was 3.35%. For `Cc1[nH]c(=O)c(C#N)cc1-c1ccccc1`, the “hERG current change (%, negative = inhibition) at 10uM” value was -7.98%. `COC(=O)c1cc(NC(=O)c2c(Cl)cnn2C)cc(C(=O)OC)c1` was tested, and the “hERG current change (%, negative = inhibition) at 10uM” value was -2.32%. `Cc1cc(C)c[n+](-c2nc3ccccc3nc2[N-]S(=O)(=O)c2cccs2)c1` was tested, and the “hERG current change (%, negative = inhibition) at 10uM” value was -3.11%. For `O=C(NCc1ccc(F)cc1)C(c1ccncc1)N(C(=O)c1csnn1)C1CC1` (centres unmarked), the “hERG current change (%, negative = inhibition) at 10uM” value was -18.8%. With `Cc1c(Cl)cccc1NC(=O)Cn1nnc(C(=O)NCc2cccs2)c1N` the “hERG current change (%, negative = inhibition) at 10uM” value was 10%. In the case of `COc1ccc(-c2c[n+](CC(=O)c3ccccc3)c3n2CCCCC3)cc1.[Br-]`, the “hERG current change (%, negative = inhibition) at 10uM” value is reported as 11.7%. `COC(=O)c1cc(NC(=O)C2COc3ccccc3O2)ccc1Cl` (centres unmarked) was tested, and the “hERG current change (%, negative = inhibition) at 10uM” value was -18.8%. `CC(CC(=O)N1CCc2ccccc21)S(=O)(=O)c1ccc2c(c1)NC(=O)CO2` (centres unmarked) was tested, and the “hERG current change (%, negative = inhibition) at 10uM” value was 0.235%. In the case of `O=C(O)C1CCN(c2ccc(S(=O)(=O)N3CCOCC3)cc2[N+](=O)[O-])CC1`, the “hERG current change (%, negative = inhibition) at 10uM” value is reported as 5.34%. For `O=C(O)c1cc(-c2cccs2)nn1-c1ccccc1`, the “hERG current change (%, negative = inhibition) at 10uM” value was 11.7%. In the case of `CCC(C)NC(=O)C(Cc1ccccc1)NS(=O)(=O)c1ccc2c(c1)oc(=O)n2C` (centres unmarked), the “hERG current change (%, negative = inhibition) at 10uM” value is reported as 22.1%. In the case of `O=C(CN1CCN(Cc2ccccc2)CC1)N1N=CCC1c1ccccc1` (centres unmarked), the “hERG current change (%, negative = inhibition) at 10uM” value is reported as -1.06%. With `COc1ccc(Cc2nnc(NC(=O)Cn3cnc4c3c(=O)n(C)c(=O)n4C)s2)cc1OC` the “hERG current change (%, negative = inhibition) at 10uM” value was 24.4%. With `CC(=O)Nc1ccc(S(=O)(=O)c2c(N)n(CCN3CCOCC3)c3nc4ccccc4nc23)cc1` the “hERG current change (%, negative = inhibition) at 10uM” value was -3.81%. In the case of `Cc1cc2c(c(=O)n1Cc1ccc3c(c1)OCO3)C(c1cccnc1)C(C#N)=C(N)O2` (centres unmarked), the “hERG current change (%, negative = inhibition) at 10uM” value is reported as 5.36%. For `Cc1ccc(CSc2ncnc3c2cnn3Cc2ccccc2)cc1C`, the “hERG current change (%, negative = inhibition) at 10uM” value was -4.1%. With `CC(=O)CSc1nc(-c2ccccc2)c(-c2ccccc2)o1` the “hERG current change (%, negative = inhibition) at 10uM” value was 10%. In the case of `Cl.O=C(Nc1cc(S(=O)(=O)N2CCCCC2)ccc1O)c1ccccc1NS(=O)(=O)c1ccc(F)cc1`, the “hERG current change (%, negative = inhibition) at 10uM” value is reported as 3.57%. `CN(CC(=O)Nc1ccccc1Br)C(=O)COc1ccc2ccccc2c1` was tested, and the “hERG current change (%, negative = inhibition) at 10uM” value was 1.04%. `CC(C)Cn1c(-c2nn(C)cc2Cl)n[nH]c1=S` was tested, and the “hERG current change (%, negative = inhibition) at 10uM” value was 17.1%. With `Cc1ccc(NCc2nnc(SCC(=O)N3CCc4ccccc43)n2C)cc1` the “hERG current change (%, negative = inhibition) at 10uM” value was -13.4%. For `Cn1c(Cn2c(=O)sc3ccccc32)nnc1SCc1ccccn1`, the “hERG current change (%, negative = inhibition) at 10uM” value was -31%. With `C=C[C@H]1CN2CC[C@H]1C[C@H]2[C@H](O)c1ccnc2ccccc12` the “hERG current change (%, negative = inhibition) at 10uM” value was -34%. In the case of `COc1ccc2cc(C(=O)Nc3c(C)n(C)n(-c4ccccc4)c3=O)sc(=O)c2c1OC`, the “hERG current change (%, negative = inhibition) at 10uM” value is reported as 8.86%. `CCOC(=O)C1(Cc2ccccc2)CCN(Cc2cccc(OC)c2O)CC1` was tested, and the “hERG current change (%, negative = inhibition) at 10uM” value was -69.6%. `COCC(=O)Nc1cc(C(=O)Nc2cccc(C)c2C)ccc1Cl` was tested, and the “hERG current change (%, negative = inhibition) at 10uM” value was -0.776%. For `CCOC(=O)N1CCN(C(=O)CS(=O)(=O)c2cn(Cc3ccc(F)cc3)c3ccccc23)CC1`, the “hERG current change (%, negative = inhibition) at 10uM” value was -26.2%. `CC(=O)Cc1nsc(NC(=O)c2ccc(COc3ccc(C)cc3)o2)n1` was tested, and the “hERG current change (%, negative = inhibition) at 10uM” value was -6.48%. `O=C(COC(=O)C1CC(=O)N(c2nc(-c3ccccc3)cs2)C1)c1ccccc1` (centres unmarked) was tested, and the “hERG current change (%, negative = inhibition) at 10uM” value was 26.9%. `CC(=O)Nc1ccc(-c2nnn(CC(=O)Nc3ccc4c(c3)OCO4)n2)cc1Cl` was tested, and the “hERG current change (%, negative = inhibition) at 10uM” value was 14.8%. `O=c1cc(-c2ccccc2)oc2ccccc12` was tested, and the “hERG current change (%, negative = inhibition) at 10uM” value was -4.17%. In the case of `COc1ccc(C(=O)NCCCCNC(=O)c2ccc(OC)c(OC)c2)cc1OC`, the “hERG current change (%, negative = inhibition) at 10uM” value is reported as 12.2%. For `CC(C)c1ccc(NC2CCCN(C(=O)CSc3nncn3C)C2)cc1` (centres unmarked), the “hERG current change (%, negative = inhibition) at 10uM” value was 17.4%. In the case of `Cc1ccc(C(=O)NCc2ccc3c(c2)OCO3)cc1S(=O)(=O)N1CCCCC1`, the “hERG current change (%, negative = inhibition) at 10uM” value is reported as -26.4%. In the case of `O=[N+]([O-])c1cc2c(cc1[N+](=O)[O-])OCCOCCOCCOCCO2`, the “hERG current change (%, negative = inhibition) at 10uM” value is reported as -59.3%. With `CCNc1nc(NCC)nc(Oc2ccc(OCc3ccccc3)nn2)n1` the “hERG current change (%, negative = inhibition) at 10uM” value was 9.65%. With `CCOc1ccc(CCNC(=O)CSCc2ccc(C)cc2)cc1OCC` the “hERG current change (%, negative = inhibition) at 10uM” value was -2.33%. In the case of `COc1cccc(CN(C)c2nc(-c3cccs3)nc3ccccc23)c1`, the “hERG current change (%, negative = inhibition) at 10uM” value is reported as -3.14%. For `CCCC(C)C(=O)Nc1ccccc1C(=O)OCC` (centres unmarked), the “hERG current change (%, negative = inhibition) at 10uM” value was -4.39%. In the case of `O=C(CN1C(=O)c2cccnc2Oc2ccc(Cl)cc21)NC1CCCCC1`, the “hERG current change (%, negative = inhibition) at 10uM” value is reported as -13.1%.

Reference: article PMC4336329 (PLoS ONE, 2015)
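Further: peak tail current of the secondary pulse compared with the same well before compound.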
